# Measured values taken from publication PMC12820563, “FoxP3 forms a head-to-head dimer in vivo and stabilizes its multimerization on adjacent microsatellites”.
# The list shows a part of the results.
# Molecular target: T1, MBP-FoxP1dN (Mus musculus, UniProt P58462 326-579)
# T1 sequence: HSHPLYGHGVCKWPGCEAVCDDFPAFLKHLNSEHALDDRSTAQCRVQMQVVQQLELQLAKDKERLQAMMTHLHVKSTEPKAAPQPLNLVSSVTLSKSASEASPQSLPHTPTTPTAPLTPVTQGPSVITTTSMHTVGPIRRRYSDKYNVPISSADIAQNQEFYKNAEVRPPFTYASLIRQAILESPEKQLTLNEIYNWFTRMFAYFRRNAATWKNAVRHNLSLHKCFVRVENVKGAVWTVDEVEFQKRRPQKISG
# Experiment: PD-seq (MBP pull-down with sequencing); 20 mM Tris-HCl pH 7.5, 100 mM NaCl, 1.5 mM MgCl2, 0.4 uM protein, 0.1 uM dsDNA library, 30 min, room temperature, amylose pull-down; high values mean tight binding
# Details: protein: recombinant; tags: His6-MBP; chain copies: 2; dsDNA, one strand shown
# Summary of the method: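 Mouse FoxP3 or FoxP1 fragment lacking the N-terminus, His6-MBP-tagged and expressed in E. coli, was incubated at 0.4 µM with 0.1 µM Klenow-filled degenerate double-stranded DNA library for 30 min at room temperature in Tris pH 7.5 buffer with NaCl and MgCl2. Complexes captured on amylose resin were washed three times and their DNA sequenced on Illumina. Binding is reads-per-million enrichment of pull-down over input, replicates pooled.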
row,Sequence,binding signal
1,GATGATTGTTCTCCCAGCTGATGAATTCGTGCACTCGAGTAAACAAATTTTCCTAATCTTTCTGTTCAAGCGCCATCTAC,0.937 RPM ratio (pull-down/input)
2,GATGATTGTTCTCCCAGCTGATGAATTGGCTTTCTCGAGTAAACAAATTTTCCTAATCTTTCTGTTCAAGCGCCATCTAC,0.862 RPM ratio (pull-down/input)
3,GATGATTGTTCTCCCAGCTGATGAATTTTCTTTTTCGAGTAAACAAATTTTCCTAATCTTTCTGTTCAAGCGCCATCTAC,1.03 RPM ratio (pull-down/input)
4,GATGATTGTTCTCCCAGCTGATGAATTCTGATGTTCGAGTAAACAAATTTTCCTAATCTTTCTGTTCAAGCGCCATCTAC,1.22 RPM ratio (pull-down/input)
5,GATGATTGTTCTCCCAGCTGATGAATTAAACCGGTCGAGTAAACAAATTTTCCTAATCTTTCTGTTCAAGCGCCATCTAC,0.788 RPM ratio (pull-down/input)
6,GATGATTGTTCTCCCAGCTGATGAATTAATTGACTCGAGTAAACAAATTTTCCTAATCTTTCTGTTCAAGCGCCATCTAC,1.04 RPM ratio (pull-down/input)
7,GATGATTGTTCTCCCAGCTGATGAATTATGCACATCGAGTAAACAAATTTTCCTAATCTTTCTGTTCAAGCGCCATCTAC,1.34 RPM ratio (pull-down/input)
8,GATGATTGTTCTCCCAGCTGATGAATTAGGCAAGTCGAGTAAACAAATTTTCCTAATCTTTCTGTTCAAGCGCCATCTAC,0.913 RPM ratio (pull-down/input)
9,GATGATTGTTCTCCCAGCTGATGAATTTCGAACCTCGAGTAAACAAATTTTCCTAATCTTTCTGTTCAAGCGCCATCTAC,0.816 RPM ratio (pull-down/input)
10,GATGATTGTTCTCCCAGCTGATGAATTACTTAGTTCGAGTAAACAAATTTTCCTAATCTTTCTGTTCAAGCGCCATCTAC,1.11 RPM ratio (pull-down/input)
11,GATGATTGTTCTCCCAGCTGATGAATTCGGTCTATCGAGTAAACAAATTTTCCTAATCTTTCTGTTCAAGCGCCATCTAC,0.854 RPM ratio (pull-down/input)
12,GATGATTGTTCTCCCAGCTGATGAATTGTAAACATCGAGTAAACAAATTTTCCTAATCTTTCTGTTCAAGCGCCATCTAC,2.78 RPM ratio (pull-down/input)
13,GATGATTGTTCTCCCAGCTGATGAATTGTACAAGTCGAGTAAACAAATTTTCCTAATCTTTCTGTTCAAGCGCCATCTAC,1.05 RPM ratio (pull-down/input)
14,GATGATTGTTCTCCCAGCTGATGAATTACCTTGTTCGAGTAAACAAATTTTCCTAATCTTTCTGTTCAAGCGCCATCTAC,0.988 RPM ratio (pull-down/input)
15,GATGATTGTTCTCCCAGCTGATGAATTTCTGAGGTCGAGTAAACAAATTTTCCTAATCTTTCTGTTCAAGCGCCATCTAC,0.736 RPM ratio (pull-down/input)
16,GATGATTGTTCTCCCAGCTGATGAATTTTTTGGATCGAGTAAACAAATTTTCCTAATCTTTCTGTTCAAGCGCCATCTAC,0.952 RPM ratio (pull-down/input)

row,Sequence,binding signal
1,GATGATTGTTCTCCCAGCTGATGAATTTCATCTGTCGAGTAAACAAATTTTCCTAATCTTTCTGTTCAAGCGCCATCTAC,0.729 RPM ratio (pull-down/input)
2,GATGATTGTTCTCCCAGCTGATGAATTTAAGGTATCGAGTAAACAAATTTTCCTAATCTTTCTGTTCAAGCGCCATCTAC,0.985 RPM ratio (pull-down/input)
3,GATGATTGTTCTCCCAGCTGATGAATTGTCTATTTCGAGTAAACAAATTTTCCTAATCTTTCTGTTCAAGCGCCATCTAC,1.31 RPM ratio (pull-down/input)
4,GATGATTGTTCTCCCAGCTGATGAATTACTGGGGTCGAGTAAACAAATTTTCCTAATCTTTCTGTTCAAGCGCCATCTAC,0.865 RPM ratio (pull-down/input)
5,GATGATTGTTCTCCCAGCTGATGAATTAACGCGGTCGAGTAAACAAATTTTCCTAATCTTTCTGTTCAAGCGCCATCTAC,0.904 RPM ratio (pull-down/input)
6,GATGATTGTTCTCCCAGCTGATGAATTATGACATTCGAGTAAACAAATTTTCCTAATCTTTCTGTTCAAGCGCCATCTAC,1.12 RPM ratio (pull-down/input)
7,GATGATTGTTCTCCCAGCTGATGAATTATTCGAGTCGAGTAAACAAATTTTCCTAATCTTTCTGTTCAAGCGCCATCTAC,0.911 RPM ratio (pull-down/input)
8,GATGATTGTTCTCCCAGCTGATGAATTGGGGCGCTCGAGTAAACAAATTTTCCTAATCTTTCTGTTCAAGCGCCATCTAC,0.789 RPM ratio (pull-down/input)
9,GATGATTGTTCTCCCAGCTGATGAATTCTAGTAATCGAGTAAACAAATTTTCCTAATCTTTCTGTTCAAGCGCCATCTAC,1.37 RPM ratio (pull-down/input)
10,GATGATTGTTCTCCCAGCTGATGAATTCGGTGCATCGAGTAAACAAATTTTCCTAATCTTTCTGTTCAAGCGCCATCTAC,1.21 RPM ratio (pull-down/input)
11,GATGATTGTTCTCCCAGCTGATGAATTGCAGGGGTCGAGTAAACAAATTTTCCTAATCTTTCTGTTCAAGCGCCATCTAC,0.992 RPM ratio (pull-down/input)
12,GATGATTGTTCTCCCAGCTGATGAATTTAGCCATTCGAGTAAACAAATTTTCCTAATCTTTCTGTTCAAGCGCCATCTAC,0.994 RPM ratio (pull-down/input)
13,GATGATTGTTCTCCCAGCTGATGAATTGATATATTCGAGTAAACAAATTTTCCTAATCTTTCTGTTCAAGCGCCATCTAC,1.14 RPM ratio (pull-down/input)
14,GATGATTGTTCTCCCAGCTGATGAATTTCACGGTTCGAGTAAACAAATTTTCCTAATCTTTCTGTTCAAGCGCCATCTAC,0.789 RPM ratio (pull-down/input)
15,GATGATTGTTCTCCCAGCTGATGAATTCGCCCGATCGAGTAAACAAATTTTCCTAATCTTTCTGTTCAAGCGCCATCTAC,0.901 RPM ratio (pull-down/input)
